A compilation of properties of binary mixtures (doi:10.1021/je401124t)
The densities may have been worked out from excess volumes.

Experiment: xn = mol fraction of the nth substance listed
Conditions: 101 kPa

With CC(C)O + COP(=O)([O-])OC.Cn1cc[n+](C)c1 the mass density (293.15 K, x1 = 1) was 785.3 kg/m3, the mass density (298.15 K, x1 = 1) was 781.1 kg/m3 and the mass density (303.15 K, x1 = 1) was 776.8 kg/m3. It also gave a mass density (308.15 K, x1 = 1) of 772.4 kg/m3, a mass density (313.15 K, x1 = 1) of 768 kg/m3 and a mass density (318.15 K, x1 = 1) of 763.5 kg/m3. For the same molecule, the mass density (323.15 K, x1 = 1) was 758.9 kg/m3.
COP(=O)([O-])OC.Cn1cc[n+](C)c1 + CCO gave a mass density (293.15 K, x2 = 0) of 1264.9 kg/m3, a mass density (293.15 K, x2 = 0.0999) of 1249.8 kg/m3 and a mass density (293.15 K, x2 = 0.2028) of 1230 kg/m3. It also gave a mass density (293.15 K, x2 = 0.3009) of 1208.8 kg/m3, a mass density (293.15 K, x2 = 0.4074) of 1181.8 kg/m3 and a mass density (293.15 K, x2 = 0.6992) of 1068.2 kg/m3. The mass density (298.15 K, x2 = 0) was 1261.3 kg/m3, the mass density (298.15 K, x2 = 0.0999) was 1246.2 kg/m3 and the mass density (298.15 K, x2 = 0.2028) was 1226.6 kg/m3. The mass density (298.15 K, x2 = 0.3009) was 1205.2 kg/m3, the mass density (298.15 K, x2 = 0.5028) was 1148.5 kg/m3 and the mass density (298.15 K, x2 = 0.6992) was 1064.5 kg/m3. For the same molecule, the mass density (298.15 K, x2 = 0.9) was 915.2 kg/m3, the mass density (303.15 K, x2 = 0) was 1257.8 kg/m3 and the mass density (303.15 K, x2 = 0.2028) was 1223.1 kg/m3. For the same molecule, the mass density (303.15 K, x2 = 0.3009) was 1201.7 kg/m3, the mass density (303.15 K, x2 = 0.4074) was 1174.7 kg/m3 and the mass density (303.15 K, x2 = 0.5028) was 1144.8 kg/m3. It also gave a mass density (303.15 K, x2 = 0.6) of 1108.3 kg/m3, a mass density (303.15 K, x2 = 0.6992) of 1060.8 kg/m3 and a mass density (303.15 K, x2 = 0.9) of 911.1 kg/m3. It also gave a mass density (308.15 K, x2 = 0) of 1254.4 kg/m3, a mass density (308.15 K, x2 = 0.0999) of 1239.4 kg/m3 and a mass density (308.15 K, x2 = 0.2028) of 1219.7 kg/m3. The mass density (308.15 K, x2 = 0.3009) was 1198.2 kg/m3, the mass density (308.15 K, x2 = 0.4074) was 1171.2 kg/m3 and the mass density (308.15 K, x2 = 0.6) was 1104.7 kg/m3. For the same molecule, the mass density (308.15 K, x2 = 0.7999) was 993.3 kg/m3, the mass density (308.15 K, x2 = 0.9) was 907.1 kg/m3 and the mass density (313.15 K, x2 = 0) was 1251 kg/m3. It also gave a mass density (313.15 K, x2 = 0.0999) of 1235.9 kg/m3, a mass density (313.15 K, x2 = 0.2028) of 1216.2 kg/m3 and a mass density (313.15 K, x2 = 0.3009) of 1194.7 kg/m3. For the same molecule, the mass density (313.15 K, x2 = 0.4074) was 1167.7 kg/m3, the mass density (313.15 K, x2 = 0.5028) was 1137.7 kg/m3 and the mass density (313.15 K, x2 = 0.6) was 1101 kg/m3. For the same molecule, the mass density (313.15 K, x2 = 0.6992) was 1053.4 kg/m3, the mass density (313.15 K, x2 = 0.7999) was 989.5 kg/m3 and the mass density (313.15 K, x2 = 0.9) was 903.1 kg/m3. It also gave a mass density (318.15 K, x2 = 0.0999) of 1232.5 kg/m3, a mass density (318.15 K, x2 = 0.2028) of 1212.8 kg/m3 and a mass density (318.15 K, x2 = 0.3009) of 1191.2 kg/m3. The mass density (318.15 K, x2 = 0.4074) was 1164.2 kg/m3, the mass density (318.15 K, x2 = 0.5028) was 1134.2 kg/m3 and the mass density (318.15 K, x2 = 0.6) was 1097.5 kg/m3. It also gave a mass density (318.15 K, x2 = 0.6992) of 1049.7 kg/m3, a mass density (318.15 K, x2 = 0.9) of 899.1 kg/m3 and a mass density (323.15 K, x2 = 0) of 1244.2 kg/m3. It also gave a mass density (323.15 K, x2 = 0.2028) of 1209.3 kg/m3, a mass density (323.15 K, x2 = 0.3009) of 1187.8 kg/m3 and a mass density (323.15 K, x2 = 0.4074) of 1160.7 kg/m3. For the same molecule, the mass density (323.15 K, x2 = 0.5028) was 1130.7 kg/m3, the mass density (323.15 K, x2 = 0.6) was 1093.8 kg/m3 and the mass density (323.15 K, x2 = 0.6992) was 1046 kg/m3. It also gave a mass density (323.15 K, x2 = 0.7999) of 982 kg/m3.
In the case of COP(=O)([O-])OC.Cn1cc[n+](C)c1 + CO, the mass density (293.15 K, x2 = 0) is reported as 1264.9 kg/m3, the mass density (293.15 K, x2 = 0.1054) is reported as 1254.1 kg/m3 and the mass density (293.15 K, x2 = 0.2009) is reported as 1242.7 kg/m3. For the same molecule, the mass density (293.15 K, x2 = 0.2977) was 1228.6 kg/m3, the mass density (293.15 K, x2 = 0.3984) was 1210.9 kg/m3 and the mass density (293.15 K, x2 = 0.5028) was 1187.2 kg/m3. It also gave a mass density (293.15 K, x2 = 0.7027) of 1118.1 kg/m3, a mass density (293.15 K, x2 = 0.8002) of 1062 kg/m3 and a mass density (298.15 K, x2 = 0.1054) of 1250.6 kg/m3. The mass density (298.15 K, x2 = 0.2009) was 1239.2 kg/m3, the mass density (298.15 K, x2 = 0.5028) was 1183.6 kg/m3 and the mass density (298.15 K, x2 = 0.6018) was 1154.2 kg/m3. The mass density (298.15 K, x2 = 0.7027) was 1114.3 kg/m3, the mass density (298.15 K, x2 = 0.8002) was 1058.1 kg/m3 and the mass density (298.15 K, x2 = 0.8998) was 960.6 kg/m3. The mass density (303.15 K, x2 = 0) was 1257.8 kg/m3, the mass density (303.15 K, x2 = 0.1054) was 1247.1 kg/m3 and the mass density (303.15 K, x2 = 0.2977) was 1221.6 kg/m3. It also gave a mass density (303.15 K, x2 = 0.3984) of 1203.7 kg/m3, a mass density (303.15 K, x2 = 0.6018) of 1150.5 kg/m3 and a mass density (303.15 K, x2 = 0.7027) of 1110.5 kg/m3. The mass density (303.15 K, x2 = 0.8002) was 1054.1 kg/m3, the mass density (303.15 K, x2 = 0.8998) was 956.4 kg/m3 and the mass density (308.15 K, x2 = 0) was 1254.4 kg/m3. For the same molecule, the mass density (308.15 K, x2 = 0.1054) was 1243.7 kg/m3, the mass density (308.15 K, x2 = 0.2009) was 1232.2 kg/m3 and the mass density (308.15 K, x2 = 0.2977) was 1218.1 kg/m3. The mass density (308.15 K, x2 = 0.3984) was 1200.2 kg/m3, the mass density (308.15 K, x2 = 0.6018) was 1146.8 kg/m3 and the mass density (308.15 K, x2 = 0.7027) was 1106.7 kg/m3. The mass density (308.15 K, x2 = 0.8002) was 1050.2 kg/m3, the mass density (308.15 K, x2 = 0.8998) was 952.3 kg/m3 and the mass density (313.15 K, x2 = 0) was 1251 kg/m3. The mass density (313.15 K, x2 = 0.1054) was 1240.2 kg/m3, the mass density (313.15 K, x2 = 0.2009) was 1228.7 kg/m3 and the mass density (313.15 K, x2 = 0.2977) was 1214.5 kg/m3. It also gave a mass density (313.15 K, x2 = 0.3984) of 1196.6 kg/m3, a mass density (313.15 K, x2 = 0.5028) of 1172.8 kg/m3 and a mass density (313.15 K, x2 = 0.6018) of 1143.1 kg/m3. The mass density (313.15 K, x2 = 0.7027) was 1103 kg/m3, the mass density (313.15 K, x2 = 0.8002) was 1046.3 kg/m3 and the mass density (313.15 K, x2 = 0.8998) was 948.1 kg/m3. It also gave a mass density (318.15 K, x2 = 0) of 1247.6 kg/m3, a mass density (318.15 K, x2 = 0.2009) of 1225.2 kg/m3 and a mass density (318.15 K, x2 = 0.2977) of 1211 kg/m3. For the same molecule, the mass density (318.15 K, x2 = 0.3984) was 1193.1 kg/m3, the mass density (318.15 K, x2 = 0.5028) was 1169.2 kg/m3 and the mass density (318.15 K, x2 = 0.6018) was 1139.5 kg/m3. For the same molecule, the mass density (318.15 K, x2 = 0.8002) was 1042.5 kg/m3, the mass density (318.15 K, x2 = 0.8998) was 944 kg/m3 and the mass density (323.15 K, x2 = 0) was 1244.2 kg/m3. The mass density (323.15 K, x2 = 0.1054) was 1233.3 kg/m3, the mass density (323.15 K, x2 = 0.2009) was 1221.8 kg/m3 and the mass density (323.15 K, x2 = 0.3984) was 1189.5 kg/m3. It also gave a mass density (323.15 K, x2 = 0.6018) of 1135.8 kg/m3, a mass density (323.15 K, x2 = 0.7027) of 1095.5 kg/m3 and a mass density (323.15 K, x2 = 0.8002) of 1038.6 kg/m3. For the same molecule, the mass density (323.15 K, x2 = 0.8998) was 939.9 kg/m3.
With CCCO + COP(=O)([O-])OC.Cn1cc[n+](C)c1 the mass density (293.15 K, x1 = 1) was 803.6 kg/m3, the mass density (298.15 K, x1 = 1) was 799.7 kg/m3 and the mass density (303.15 K, x1 = 1) was 795.9 kg/m3. The mass density (308.15 K, x1 = 1) was 791.8 kg/m3, the mass density (313.15 K, x1 = 1) was 787.7 kg/m3 and the mass density (318.15 K, x1 = 1) was 783.6 kg/m3. It also gave a mass density (323.15 K, x1 = 1) of 779.4 kg/m3.
